From the antibiotic and cytotoxicity screens of Wong et al. (2023)
Some of the results follow.

Test system: S. aureus RN4220
Experiment: growth inhibition call (relative growth <= 0.2)
Settings: 50 µM

Growth inhibition call, inactive:
COc1cccc(CN(C)C[C@@H]2OCc3ccccc3-c3c(n(C)c4ccccc34)C(=O)N([C@H](C)CO)C[C@H]2C)c1
Cc1cc2nc3c(=O)[nH]c(=O)nc-3n(C[C@@H](O)[C@@H](O)[C@@H](O)CO)c2cc1C
COc1ccc(NC(=O)N2C[C@H](O)COC[C@@H]3O[C@H](CC(=O)NC4Cc5ccccc5C4)CC[C@H]32)cc1
C[C@@H]1CN([C@H](C)CO)C(=O)c2cc(NC(=O)Nc3ccc(C(F)(F)F)cc3)ccc2O[C@H]1CN(C)C(=O)Nc1ccc2c(c1)OCO2
C[C@H]1CN([C@@H](C)CO)C(=O)Cc2cc(NC(=O)Nc3cccc4ccccc34)ccc2O[C@H]1CN(C)Cc1ccc2c(c1)OCO2
C=c1ccccc1=C1NN=C(CN2CCCC2)O1
C[C@H]1CN([C@@H](C)CO)C(=O)c2cc(NS(=O)(=O)c3ccc(Cl)cc3)ccc2O[C@H]1CN(C)Cc1ccc(C(=O)Nc2ccccc2N)cc1
COc1ccc(S(=O)(=O)Nc2ccc3c(c2)C(=O)N([C@H](C)CO)C[C@H](C)[C@H](CN(C)C(=O)Nc2c(C)noc2C)OCCCC[C@@H](C)O3)cc1
O=S1(=O)[C@@H]2C[C@H]3C=CC2(CN1C1CC1)O3
Cc1ccc(N2CC[C@@H](CN)C2)cc1
Cc1ccc(S(=O)(=O)Nc2ccc3c(c2)C(=O)N([C@H](C)CO)C[C@H](C)[C@@H](CN(C)S(=O)(=O)c2ccc(F)cc2)OCCCC[C@H](C)O3)cc1
Cc1noc(C)c1NC(=O)N(C)C[C@H]1Oc2ccc(NC(=O)C3CC3)cc2C(=O)N([C@H](C)CO)C[C@@H]1C
C[C@H](CO)N1C[C@H](C)[C@H](CN(C)C(=O)Nc2cccc3ccccc23)Oc2ncc(-c3cc4ccccc4o3)cc2C1=O
O=C(CCCCCCC(=O)Nc1ccccc1O)N/N=C/[C@H](O)[C@@H](O)[C@H](O)CO
CCC(=O)Nc1ccc2ccccc2c1
COc1ccc(NC(=O)N(C)C[C@@H]2OCCCC[C@H](C)Oc3ccc(NS(=O)(=O)c4ccc(OC)cc4)cc3C(=O)N([C@H](C)CO)C[C@@H]2C)cc1
C[C@@H]1CCCCO[C@@H](CN(C)Cc2ccc(Cl)c(Cl)c2)[C@@H](C)CN([C@H](C)CO)C(=O)c2cc(NC(=O)Nc3ccc(C(F)(F)F)cc3)ccc2O1
C[C@@H]1CN([C@@H](C)CO)C(=O)c2cc(NC(=O)CCCCCC(=O)Nc3ccccc3N)ccc2O[C@@H](C)CCCCO[C@@H]1CN(C)CC1CCCCC1
Cc1ccc(S(=O)(=O)N(C)C[C@@H]2OCCCC[C@H](C)Oc3ccc(NC(=O)Nc4cccc5ccccc45)cc3C(=O)N([C@H](C)CO)C[C@@H]2C)cc1
C[C@@H]1CCCCO[C@@H](CN(C)CC2CC2)[C@@H](C)CN([C@H](C)CO)C(=O)c2cc(NC(=O)CCC(F)(F)F)ccc2O1
C[C@H]1CCCCO[C@H](CN(C)Cc2ccc(Cl)c(Cl)c2)[C@@H](C)CN([C@@H](C)CO)C(=O)c2cc(NC(=O)Nc3ccccc3)ccc2O1
Cc1noc(C)c1NC(=O)N(C)C[C@@H]1Oc2ccc(NC(=O)c3ccncc3)cc2C(=O)N([C@H](C)CO)C[C@H]1C
CC(C)NC(=O)N(C)C[C@@H]1OCc2cnnn2CCCC(=O)N([C@H](C)CO)C[C@@H]1C
NC(=O)[C@H]1C[C@@H]2C=C[C@H]1C2
C[C@H]1CN([C@@H](C)CO)C(=O)c2cc(NS(=O)(=O)c3ccccc3)ccc2O[C@@H]1CN(C)C(=O)Nc1cccc2ccccc12
c1ccc2c(-c3cn[nH]c3)ccnc2c1
C[C@@H]1CN([C@@H](C)CO)C(=O)c2cc(NC(=O)Cn3cnnn3)ccc2O[C@H]1CN(C)Cc1ccc2c(c1)OCO2
Cc1cccc(NC(=O)Nc2ccc3c(c2)C(=O)N(C)[C@H]2CC[C@H](CC(=O)NCc4ccccc4Cl)O[C@H]2CO3)c1
CN1CCN2c3ccccc3Cc3ccccc3C2C1.Cl (stereo not given)
COc1ccc([C@@H](N)c2ccccc2)cc1
C[C@H](CO)N1C[C@H](C)[C@H](CN(C)Cc2ccc(C(F)(F)F)cc2)Oc2ccc(NC(=O)Nc3ccccc3)cc2CC1=O
COc1ccc(NC(=O)Nc2ccc3c(c2)C(=O)N([C@H](C)CO)C[C@H](C)[C@H](CN(C)S(=O)(=O)c2ccc(OC)cc2)OCCCC[C@@H](C)O3)cc1
C[C@@H]1CN([C@H](C)CO)C(=O)Cc2cc(NC(=O)Cn3cnnn3)ccc2O[C@H]1CN(C)Cc1ccccc1
C[C@@H]1CCCCO[C@H](CN(C)C(=O)Nc2ccc(C(F)(F)F)cc2)[C@@H](C)CN([C@@H](C)CO)C(=O)c2cc(NC(=O)Nc3ccc(C(F)(F)F)cc3)ccc2O1
Cc1noc(C)c1NC(=O)Nc1ccc2c(c1)C(=O)N([C@H](C)CO)C[C@@H](C)[C@H](CN(C)S(=O)(=O)c1ccc(F)cc1)OCCCC[C@@H](C)O2
C=CC[C@H](CC(=O)N(CCO)Cc1ccccc1)C(=O)N[C@H](COC(=O)[C@@H](CC=C)Cc1ccc(F)cc1)Cc1c[nH]c2ccccc12
CCn1c(Cl)nc2c1c(=O)n(C)c(=O)n2C
O=C1CCC(=O)NCC/C=C/CCN1
Cc1noc(C)c1S(=O)(=O)N(C)C[C@@H]1Oc2ccc(NS(=O)(=O)c3cn(C)cn3)cc2CC(=O)N([C@H](C)CO)C[C@@H]1C
CCCCNc1ccc(C(=O)OCCOCCOCCOCCOCCOCCOCCOCCOCCOC)cc1
